Data: article PMC4336329 (PLoS ONE, 2015)
About 2,200 (0.71%) of roughly 310,000 compounds showed an effect of 50% or more. The effect is printed as a negative number. This is one part of the list.

molecular target: human ether-à-go-go-related gene (hERG) potassium channel (human, UniProt Q12809); assay: primary screen, population patch clamp on CHO cells stably expressing hERG
Sequence (Q12809 whole entry, looked up): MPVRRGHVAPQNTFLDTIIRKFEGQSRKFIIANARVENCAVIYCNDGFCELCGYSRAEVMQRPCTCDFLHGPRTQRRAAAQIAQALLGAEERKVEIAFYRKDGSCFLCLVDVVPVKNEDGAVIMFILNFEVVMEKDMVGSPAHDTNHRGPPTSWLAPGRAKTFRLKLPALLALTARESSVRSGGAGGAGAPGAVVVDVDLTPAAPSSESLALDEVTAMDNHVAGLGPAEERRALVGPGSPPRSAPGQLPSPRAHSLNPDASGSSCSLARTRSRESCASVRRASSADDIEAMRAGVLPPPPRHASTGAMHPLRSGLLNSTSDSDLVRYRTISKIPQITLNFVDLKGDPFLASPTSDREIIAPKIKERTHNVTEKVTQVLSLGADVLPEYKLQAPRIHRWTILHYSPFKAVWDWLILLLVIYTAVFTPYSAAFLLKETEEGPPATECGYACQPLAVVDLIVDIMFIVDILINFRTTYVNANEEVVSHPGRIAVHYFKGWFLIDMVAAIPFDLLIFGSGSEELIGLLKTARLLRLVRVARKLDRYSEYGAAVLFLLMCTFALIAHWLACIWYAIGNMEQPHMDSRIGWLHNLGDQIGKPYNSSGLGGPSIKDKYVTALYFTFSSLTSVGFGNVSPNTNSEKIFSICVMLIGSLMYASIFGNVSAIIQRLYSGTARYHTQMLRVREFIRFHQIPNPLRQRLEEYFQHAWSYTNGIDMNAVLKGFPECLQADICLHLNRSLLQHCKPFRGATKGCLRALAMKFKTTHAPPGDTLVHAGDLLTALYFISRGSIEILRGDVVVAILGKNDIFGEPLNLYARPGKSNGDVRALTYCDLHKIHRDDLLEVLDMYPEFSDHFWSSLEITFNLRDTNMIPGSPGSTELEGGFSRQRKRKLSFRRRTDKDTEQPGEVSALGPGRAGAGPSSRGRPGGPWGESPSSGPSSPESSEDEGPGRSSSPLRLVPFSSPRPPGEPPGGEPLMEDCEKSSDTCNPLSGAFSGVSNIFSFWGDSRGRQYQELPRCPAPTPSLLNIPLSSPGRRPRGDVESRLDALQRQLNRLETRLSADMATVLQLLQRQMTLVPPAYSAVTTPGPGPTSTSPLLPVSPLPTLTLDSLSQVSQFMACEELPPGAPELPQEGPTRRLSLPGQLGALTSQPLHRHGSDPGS

Compound | hERG current change (%, negative = inhibition) at 1uM
CC(C)CC(=O)Nc1cccc(NC(=O)CC(C)C)n1 | 13.2%
CCOC(=O)c1nnn(-c2nonc2N)c1-c1ccccc1Cl | 14.9%
COc1cccc(C(=O)Nc2ccc3c(c2)C(=O)c2ccccc2C3=O)c1 | 6.36%
O=C1N=C(N2CCOCC2)CS1 | 8.27%
Cc1cccc(C)c1NC(=O)CCCSc1nnc(N)s1 | 8.09%
COc1ccccc1NS(=O)(=O)c1cccc(NC(=O)c2[nH]c(C)c(C(C)=O)c2C)c1 | -1.44%
CCOC(=O)c1c[nH]c2c(Cl)ccc(Cl)c2c1=O | 5.48%
COc1cccc(CNC(=O)CSc2nc3c(oc4ccccc43)c(=O)n2CC2CCCO2)c1 (stereo not shown) | 2.07%
C=CCN(c1ccccc1)S(=O)(=O)c1cccc(C(=O)NC2CCC(O)CC2)c1 (stereo not shown) | -2.58%
Cc1ccc(C(=O)O)cc1NC(=S)NC(=O)c1ccc([N+](=O)[O-])c(C)c1 | 7.54%
OCCC1CN(Cc2cnc(N3CCCC3)s2)CCN1C1CCCC1 (stereo not shown) | 6.87%
CCCNc1c(NC(=O)C2CCC(C)CC2)c(=O)oc2ccccc12 (stereo not shown) | 10.6%
CCOc1ccc(CNC(=O)CCSCc2ccccc2F)cc1OC | 14.1%
Cc1ccc(S(=O)(=O)CCC(=O)OC(C)C(=O)c2c(C)[nH]c3ccccc23)cc1 (stereo not shown) | 12.8%
CN(CC(=O)Nc1ccc(S(=O)(=O)N2CCCC2)cc1)Cc1c(F)cccc1Cl | 6.9%
c1ccc(CCOn2ccnc2)cc1 | 14.7%
O=C(NC1CC2CCCC(C1)N2C(=O)NCc1ccccc1)C1CC1 (stereo not shown) | -15.4%
O=C(Nc1ccc(NC(=O)c2cccs2)cc1)c1cccnc1 | 13.4%
Cc1[nH]cnc1C(=O)N/N=C/c1c(Cl)cccc1Cl | 17.6%
Cc1noc(C)c1C(=O)N1CCN(c2cccc(Cl)c2)CC1 | 6.48%
CCN(CC)c1ccc(/C=C2\C(=O)NC(=O)N(Cc3ccco3)C2=O)cc1 | 0.975%
O=C(NCCOc1ccccc1)C(c1ccccc1)c1ccccc1 | 7.36%
Cc1ccc(-n2cc(CNCCc3ncc(C)[nH]3)c(-c3ccc(F)cc3)n2)cc1 | -5.51%
N#Cc1c(NC(=S)NC(=O)c2ccccc2)sc2c1CCCC2 | 12.6%
CCOC(=O)C1=C(C)N=c2s/c(=C/c3ccc(OCC(=O)O)cc3)c(=O)n2C1c1ccc(SC)cc1 (stereo not shown) | 13.8%
